Experimental data reported in the supplement of paper PMC4604168 (melanoma cell lines).
The other results are listed elsewhere or left out. Most values come without repeats; read them as rough.

Tests used:
Assay in all cases: cell count relative to DMSO control; melanoma cells; higher = more viable cells
Conditions in all cases: library dose: low library concentration; 72 h
MZ2-MEL = system: MZ2-MEL
MeWo = system: MeWo
RPMI7951 = system: RPMI7951
RVH-421 = system: RVH-421
SkMel28 = system: SkMel28
SkMel2 = system: SkMel2
SkMel30 = system: SkMel30
SkMel5 = system: SkMel5
UACC257 = system: UACC257
UACC62 = system: UACC62
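Note: cell number obtained by counting DAPI-stained nuclei in high-throughput microscope images with image analysis software, screen run in 1,536-well plates.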

Row | SMILES | cell count (MZ2-MEL) | cell count (MeWo) | cell count (RPMI7951) | cell count (RVH-421) | cell count (SkMel28) | cell count (SkMel2) | cell count (SkMel30) | cell count (SkMel5) | cell count (UACC257) | cell count (UACC62)
1 | C#Cc1cccc(Nc2ncnc3cc(OCCOC)c(OCCOC)cc23)c1 [erlotinib] + CN(C)S(=O)(=O)c1ccc2c(c1)/C(=C/c1cc3c([nH]1)CCCC3)C(=O)N2 [SU6656] (first compound 0.8 µM, partner dose 0.4 µM) | 96.2% | 76.7% | 105% | 111% | 91.6% | 93% | 73.4% | 108% | 119% | 82.9%
2 | Clc1ccc(Nc2nnc(Cc3ccncc3)c3ccccc23)cc1 [vatalanib] + Oc1cc(-c2nc(-c3ccccc3)[nH]c2-c2ccncc2)ccc1Cl [L779450] (first compound 2 µM, partner dose 0.2 µM) | 82.9% | 94.8% | 98.3% | 66% | 79.6% | 108% | 92.8% | 96.5% | 75.1% | 55.6%
3 | Clc1ccc(Nc2nnc(Cc3ccncc3)c3ccccc23)cc1 [vatalanib] + NC(=O)Nc1cc(-c2cccc(F)c2)sc1C(=O)N[C@H]1CCCNC1 [AZD7762] (first compound 2 µM, partner dose 0.02 µM) | 101% | 91.6% | 76% | 123% | 71.8% | 109% | 113% | 89.3% | 90.4% | 82.1%
4 | Cn1c(Nc2ccc(C(F)(F)F)cc2)nc2cc(Oc3ccnc(-c4ncc(C(F)(F)F)[nH]4)c3)ccc21 + CC1(C)NC(=O)N(c2ccc([N+](=O)[O-])c(C(F)(F)F)c2)C1=O [nilutamide] (first compound 0.08 µM, partner dose 1 µM) | 68.4% | 61.3% | 61.4% | 58.6% | 74% | 64.3% | 54.3% | 63.4% | 53.1% | 59.2%
5 | C#Cc1cccc(Nc2ncnc3cc(OCCOC)c(OCCOC)cc23)c1 [erlotinib] + O=C(Nc1cccc(Cl)c1)Nc1ncc(CCNc2ncnc3ccsc23)s1 [SNS314] (first compound 0.8 µM, partner dose 0.0008 µM) | 103% | 80.9% | 95.1% | 90.9% | 111% | 109% | 103% | 94.9% | 78.6% | 80.2%
6 | Nc1cccc2c1CN(C1CCC(=O)NC1=O)C2=O (stereo not given) [lenalidomide] + Cn1cncc1[C@@](N)(c1ccc(Cl)cc1)c1ccc2c(c1)c(-c1cccc(Cl)c1)cc(=O)n2C [tipifarnib] (first compound 1 µM, partner dose 0.01 µM) | 103% | 92.7% | 96.7% | 64% | 88.9% | 69.2% | 96.1% | 98% | 84.2% | 77.2%
7 | Clc1ccc(Nc2nnc(Cc3ccncc3)c3ccccc23)cc1 [vatalanib] + O=C1NC(=O)/C(=C/c2ccc(-c3ccc(F)cc3O)o2)S1 [AS252424] (first compound 2 µM, partner dose 1 µM) | 88.2% | 89% | 91% | 91.9% | 93.2% | 112% | 85.3% | 85.1% | 96.5% | 101%
8 | COCC[n+]1c2c(n(Cc3cnccn3)c1C)C(=O)c1ccccc1C2=O + CN(NC(=O)CC(=O)NN(C)C(=S)c1ccccc1)C(=S)c1ccccc1 [STA4783] (first compound 0.0004 µM, partner dose 0.006 µM) | 45% | 60.1% | 78.5% | 91.9% | 97% | 77.8% | 73.2% | 66.5% | 87.7% | 90.2%
9 | OCc1c[nH]c2ccccc12 [Indole-3-carbinol] + COc1ccc(-c2ccc3c(N4CCOCC4)nc(N4C[C@@H](C)O[C@@H](C)C4)nc3n2)cc1CO [KU0063794] (first compound 0.8 µM, partner dose 0.02 µM) | 92.6% | 102% | 91% | 79% | 106% | 97.9% | 90.3% | 95.1% | 97.6% | 107%
10 | Cn1c(Nc2ccc(C(F)(F)F)cc2)nc2cc(Oc3ccnc(-c4ncc(C(F)(F)F)[nH]4)c3)ccc21 + COc1cc2c(Oc3ccc4[nH]c(C)cc4c3F)ncnc2cc1OCCCN1CCCC1 [cediranib] (first compound 0.08 µM, partner dose 0.4 µM) | 70.7% | 68.8% | 57.9% | 82.3% | 66.9% | 80% | 55.8% | 69.9% | 46.1% | 49%
11 | Clc1ccc(Nc2nnc(Cc3ccncc3)c3ccccc23)cc1 [vatalanib] + CO[C@@H]1[C@H](N(C)C(=O)c2ccccc2)C[C@H]2O[C@]1(C)n1c3ccccc3c3c4c(c5c6ccccc6n2c5c31)C(=O)NC4 [Midostaurin] (first compound 2 µM, partner dose 0.08 µM) | 86.4% | 76.4% | 92.9% | 97.1% | 86% | 77.5% | 116% | 73.8% | 65.1% | 89.1%
12 | OCc1c[nH]c2ccccc12 [Indole-3-carbinol] + CCN(CC)CCCCNc1ncc2cc(-c3cc(OC)cc(OC)c3)c(NC(=O)NC(C)(C)C)nc2n1 [PD173074] (first compound 0.8 µM, partner dose 0.1 µM) | 95.8% | 105% | 106% | 125% | 113% | 98.3% | 93.3% | 97.7% | 85.6% | 97.5%
13 | OCc1c[nH]c2ccccc12 [Indole-3-carbinol] + CC(C)CCN1c2nc(Nc3cc(F)c(O)c(F)c3)ncc2N(C)C(=O)C1C [BID1870] (first compound 0.8 µM, partner dose 0.2 µM) | 95.1% | 89.9% | 89.9% | 94.4% | 82.9% | 95.8% | 90% | 98.5% | 82.5% | 86.9%
14 | Cn1c(Nc2ccc(C(F)(F)F)cc2)nc2cc(Oc3ccnc(-c4ncc(C(F)(F)F)[nH]4)c3)ccc21 + C=CCn1c(=O)c2cnc(Nc3ccc(N4CCN(C)CC4)cc3)nc2n1-c1cccc(C(C)(C)O)n1 [MK1775] (first compound 0.08 µM, partner dose 0.02 µM) | 75.3% | 58.1% | 53.9% | 75.2% | 44.9% | 67.8% | 62.9% | 54.8% | 31.2% | 49.7%
15 | Clc1ccc(Nc2nnc(Cc3ccncc3)c3ccccc23)cc1 [vatalanib] + O=c1cc(-c2cccc3c2Sc2ccccc2S3)oc(N2CCOCC2)c1 [KU55933] (first compound 2 µM, partner dose 1 µM) | 93.6% | 100% | 86.6% | 117% | 88% | 106% | 114% | 97.8% | 87.4% | 91%
16 | Clc1ccc(Nc2nnc(Cc3ccncc3)c3ccccc23)cc1 [vatalanib] + O=S(=O)(c1ccccc1)N(CC(F)(F)F)c1ccc(C(O)(C(F)(F)F)C(F)(F)F)cc1 [T0901317] (first compound 2 µM, partner dose 1.4 µM) | 87.8% | 82.3% | 92% | 101% | 93.3% | 105% | 102% | 81% | 90.6% | 104%
17 | Cn1c(Nc2ccc(C(F)(F)F)cc2)nc2cc(Oc3ccnc(-c4ncc(C(F)(F)F)[nH]4)c3)ccc21 + Cc1ccc(NC(=O)c2cccc(N(C)C)c2)cc1NC(=O)c1ccc(O)cc1 [ZM336372] (first compound 0.08 µM, partner dose 2 µM) | 59.8% | 67.4% | 62.1% | 89.5% | 57.8% | 81.9% | 43.3% | 69.1% | 32.8% | 45.8%
18 | OCc1c[nH]c2ccccc12 [Indole-3-carbinol] + COc1cc2ncnc(Nc3ccc(Oc4ccccc4)cc3)c2cc1OC [SrcI1] (first compound 0.8 µM, partner dose 2 µM) | 99.1% | 97% | 95.9% | 120% | 81.1% | 112% | 102% | 104% | 101% | 97.6%
19 | Nc1cccc2c1CN(C1CCC(=O)NC1=O)C2=O (stereo not given) [lenalidomide] + CO[C@@H]1[C@H](N(C)C(=O)c2ccccc2)C[C@H]2O[C@]1(C)n1c3ccccc3c3c4c(c5c6ccccc6n2c5c31)C(=O)NC4 [Midostaurin] (first compound 1 µM, partner dose 0.08 µM) | 96.4% | 89% | 109% | 85.4% | 95.6% | 84.3% | 108% | 87.9% | 75.4% | 99.9%
20 | Clc1ccc(Nc2nnc(Cc3ccncc3)c3ccccc23)cc1 [vatalanib] + CC1(C)NC(=O)N(c2ccc([N+](=O)[O-])c(C(F)(F)F)c2)C1=O [nilutamide] (first compound 2 µM, partner dose 1 µM) | 97.8% | 94.1% | 87.3% | 78.4% | 88.8% | 95.2% | 106% | 73.5% | 82.8% | 96.1%
21 | O=C(CCCCCCC(=O)Nc1ccccc1)NO [vorinostat] + COc1cc(Nc2ncc(F)c(Nc3ccc4c(n3)NC(=O)C(C)(C)O4)n2)cc(OC)c1OC [Tamatinib] (first compound 0.08 µM, partner dose 0.4 µM) | 94.8% | 93% | 89.1% | 104% | 84.9% | 97.8% | 98.9% | 87.6% | 71.7% | 74.1%
22 | Cn1c(Nc2ccc(C(F)(F)F)cc2)nc2cc(Oc3ccnc(-c4ncc(C(F)(F)F)[nH]4)c3)ccc21 + O=C(Nc1cccc(Cl)c1)Nc1ncc(CCNc2ncnc3ccsc23)s1 [SNS314] (first compound 0.08 µM, partner dose 0.0008 µM) | 68.5% | 73.2% | 58.6% | 54.1% | 66.3% | 68% | 42.4% | 69.3% | 58.9% | 51.9%
23 | OCc1c[nH]c2ccccc12 [Indole-3-carbinol] + CCCCCCCCCCCC1=C(O)C(=O)C=C(O)C1=O [Embelin] (first compound 0.8 µM, partner dose 1.2 µM) | 101% | 103% | 86.3% | 129% | 106% | 106% | 97.7% | 100% | 83.6% | 100%
